# Assay results published in the supplement of paper PMC8728848.
# This is one part of the list.
# Legend:
# Experiment in all cases: glycan array binding signal (z-score within array); higher = stronger binding
# Conditions in all cases: glycan notation: IUPAC condensed, linker removed; mutation: R82H, R255H
# [1] = target: GlcNAc(a1-3)Gal(b1-4)GlcNAc
# Procedure, shortened: (§1)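 Negative Z-scores can be read as non-binding. The Z-score is calculated within each array and then averaged across arrays of one protein sequence at different concentrations or buffers and across linkers. Arrays, 3228 in all, were curated from the Consortium for Functional Glycomics database and kept only where the protein sequence was available.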
# [2] = target: GlcNAc(a1-4)Gal(b1-3)GlcNAc
# Procedure, shortened: as §1
# [3] = target: GlcNAc(a1-4)Gal(b1-4)GalNAc
# Procedure, shortened: as §1
# [4] = target: GlcNAc(a1-4)Gal(b1-4)GlcNAc
# Procedure, shortened: as §1
# [5] = target: GlcNAc(a1-4)Gal(b1-4)GlcNAc(b1-3)Gal(b1-4)Glc
# Procedure, shortened: as §1
# [6] = target: GlcNAc(a1-4)Gal(b1-4)GlcNAc(b1-3)Gal(b1-4)GlcNAc
# Procedure, shortened: as §1
# [7] = target: GlcNAc(a1-4)Gal(b1-4)GlcNAc(b1-3)Gal(b1-4)GlcNAc(b1-3)Gal(b1-4)GlcNAc
# Procedure, shortened: as §1
# [8] = target: GlcNAc(a1-4)Gal(b1-4)GlcNAc(b1-3)Gal(b1-4)[Fuc(a1-3)]GlcNAc(b1-3)Gal(b1-4)[Fuc(a1-3)]GlcNAc
# Procedure, shortened: as §1
# [9] = target: GlcNAc(a1-6)Gal(b1-4)GlcNAc
# Procedure, shortened: as §1
# [10] = target: GlcNAc(b1-2)Gal(b1-3)GalNAc
# Procedure, shortened: as §1
# [11] = target: GlcNAc(b1-2)Man(a1-3)[GlcNAc(b1-2)Man(a1-6)]Man(b1-4)GlcNAc(b1-4)GlcNAc
# Procedure, shortened: as §1
# [12] = target: GlcNAc(b1-2)Man(a1-3)[GlcNAc(b1-2)Man(a1-6)]Man(b1-4)GlcNAc(b1-4)[Fuc(a1-6)]GlcNAc
# Procedure, shortened: as §1
# [13] = target: GlcNAc(b1-2)Man(a1-3)[GlcNAc(b1-4)][GlcNAc(b1-2)Man(a1-6)]Man(b1-4)GlcNAc(b1-4)GlcNAc
# Procedure, shortened: as §1
# [14] = target: GlcNAc(b1-2)Man(a1-3)[GlcNAc(b1-4)][GlcNAc(b1-2)Man(a1-6)]Man(b1-4)GlcNAc(b1-4)[Fuc(a1-6)]GlcNAc
# Procedure, shortened: as §1
# [15] = target: GlcNAc(b1-2)[GlcNAc(b1-4)]Man(a1-3)[GlcNAc(b1-2)Man(a1-6)]Man(b1-4)GlcNAc(b1-4)GlcNAc
# Procedure, shortened: as §1
# [16] = target: GlcNAc(b1-2)[GlcNAc(b1-4)]Man(a1-3)[GlcNAc(b1-4)][GlcNAc(b1-2)Man(a1-6)]Man(b1-4)GlcNAc(b1-4)GlcNAc
# Procedure, shortened: as §1
# [17] = target: GlcNAc(b1-2)[GlcNAc(b1-4)]Man(a1-3)[GlcNAc(b1-4)][GlcNAc(b1-2)[GlcNAc(b1-6)]Man(a1-6)]Man(b1-4)GlcNAc(b1-4)GlcNAc
# Procedure, shortened: as §1
# [18] = target: GlcNAc(b1-2)[GlcNAc(b1-4)]Man(a1-3)[GlcNAc(b1-4)][GlcNAc(b1-2)[GlcNAc(b1-6)]Man(a1-6)]Man(b1-4)GlcNAc(b1-4)[Fuc(a1-6)]GlcNAc
# Procedure, shortened: as §1
# [19] = target: GlcNAc(b1-2)[GlcNAc(b1-6)]Man(a1-6)[GlcNAc(b1-2)Man(a1-3)]Man(b1-4)GlcNAc(b1-4)GlcNAc
# Procedure, shortened: as §1
# [20] = target: GlcNAc(b1-2)[GlcNAc(b1-6)]Man(a1-6)[GlcNAc(b1-2)Man(a1-3)]Man(b1-4)GlcNAc(b1-4)[Fuc(a1-6)]GlcNAc
# Procedure, shortened: as §1
# [21] = target: GlcNAc(b1-2)[GlcNAc(b1-6)]Man(a1-6)[GlcNAc(b1-4)][GlcNAc(b1-2)Man(a1-3)]Man(b1-4)GlcNAc(b1-4)GlcNAc
# Procedure, shortened: as §1
# [22] = target: GlcNAc(b1-3)Fuc
# Procedure, shortened: as §1
# [23] = target: GlcNAc(b1-3)Gal
# Procedure, shortened: as §1
# [24] = target: GlcNAc(b1-3)Gal(b1-3)GalNAc
# Procedure, shortened: as §1
# [25] = target: GlcNAc(b1-3)Gal(b1-4)Glc
# Procedure, shortened: as §1
# [26] = target: GlcNAc(b1-3)Gal(b1-4)GlcNAc
# Procedure, shortened: as §1
# [27] = target: GlcNAc(b1-3)Gal(b1-4)GlcNAc(b1-2)Man(a1-3)[GlcNAc(b1-3)Gal(b1-4)GlcNAc(b1-2)Man(a1-6)]Man(b1-4)GlcNAc(b1-4)GlcNAc
# Procedure, shortened: as §1
# [28] = target: GlcNAc(b1-3)Gal(b1-4)GlcNAc(b1-2)Man(a1-3)[GlcNAc(b1-3)Gal(b1-4)GlcNAc(b1-2)Man(a1-6)]Man(b1-4)GlcNAc(b1-4)[Fuc(a1-6)]GlcNAc
# Procedure, shortened: as §1
# [29] = target: GlcNAc(b1-3)Gal(b1-4)GlcNAc(b1-2)[GlcNAc(b1-3)Gal(b1-4)GlcNAc(b1-6)]Man(a1-6)[GlcNAc(b1-3)Gal(b1-4)GlcNAc(b1-2)Man(a1-3)]Man(b1-4)GlcNAc(b1-4)GlcNAc
# Procedure, shortened: as §1
# [30] = target: GlcNAc(b1-3)Gal(b1-4)GlcNAc(b1-3)Gal(b1-4)GlcNAc
# Procedure, shortened: as §1
# [31] = target: GlcNAc(b1-3)Gal(b1-4)GlcNAc(b1-3)Gal(b1-4)GlcNAc(b1-2)Man(a1-3)[GlcNAc(b1-3)Gal(b1-4)GlcNAc(b1-3)Gal(b1-4)GlcNAc(b1-2)Man(a1-6)]Man(b1-4)GlcNAc(b1-4)GlcNAc
# Procedure, shortened: as §1
# [32] = target: GlcNAc(b1-3)Gal(b1-4)GlcNAc(b1-3)Gal(b1-4)GlcNAc(b1-2)Man(a1-3)[GlcNAc(b1-3)Gal(b1-4)GlcNAc(b1-3)Gal(b1-4)GlcNAc(b1-2)Man(a1-6)]Man(b1-4)GlcNAc(b1-4)[Fuc(a1-6)]GlcNAc
# Procedure, shortened: as §1
# [33] = target: GlcNAc(b1-3)Gal(b1-4)GlcNAc(b1-3)Gal(b1-4)GlcNAc(b1-2)[GlcNAc(b1-3)Gal(b1-4)GlcNAc(b1-3)Gal(b1-4)GlcNAc(b1-6)]Man(a1-6)[GlcNAc(b1-3)Gal(b1-4)GlcNAc(b1-3)Gal(b1-4)GlcNAc(b1-2)Man(a1-3)]Man(b1-4)GlcNAc(b1-4)[Fuc(a1-6)]GlcNAc
# Procedure, shortened: as §1
# [34] = target: GlcNAc(b1-3)Gal(b1-4)GlcNAc(b1-3)Gal(b1-4)GlcNAc(b1-3)Gal(b1-4)GlcNAc(b1-2)Man(a1-3)[GlcNAc(b1-3)Gal(b1-4)GlcNAc(b1-3)Gal(b1-4)GlcNAc(b1-3)Gal(b1-4)GlcNAc(b1-2)Man(a1-6)]Man(b1-4)GlcNAc(b1-4)GlcNAc
# Procedure, shortened: as §1
# [35] = target: GlcNAc(b1-3)Gal(b1-4)GlcNAc(b1-3)Gal(b1-4)GlcNAc(b1-3)Gal(b1-4)GlcNAc(b1-2)Man(a1-3)[GlcNAc(b1-3)Gal(b1-4)GlcNAc(b1-3)Gal(b1-4)GlcNAc(b1-3)Gal(b1-4)GlcNAc(b1-2)Man(a1-6)]Man(b1-4)GlcNAc(b1-4)[Fuc(a1-6)]GlcNAc
# Procedure, shortened: as §1
# [36] = target: GlcNAc(b1-3)Gal(b1-4)GlcNAc(b1-3)Gal(b1-4)GlcNAc(b1-3)Gal(b1-4)GlcNAc(b1-2)[GlcNAc(b1-3)Gal(b1-4)GlcNAc(b1-3)Gal(b1-4)GlcNAc(b1-3)Gal(b1-4)GlcNAc(b1-6)]Man(a1-6)[GlcNAc(b1-3)Gal(b1-4)GlcNAc(b1-3)Gal(b1-4)GlcNAc(b1-3)Gal(b1-4)GlcNAc(b1-2)Man(a1-3)]Man(b1-4)GlcNAc(b1-4)[Fuc(a1-6)]GlcNAc
# Procedure, shortened: as §1
# [37] = target: GlcNAc(b1-3)Gal(b1-4)GlcNAc(b1-3)Gal(b1-4)GlcNAc(b1-3)Gal(b1-4)GlcNAc(b1-3)Gal(b1-4)GlcNAc(b1-2)Man(a1-3)[GlcNAc(b1-3)Gal(b1-4)GlcNAc(b1-3)Gal(b1-4)GlcNAc(b1-3)Gal(b1-4)GlcNAc(b1-3)Gal(b1-4)GlcNAc(b1-2)Man(a1-6)]Man(b1-4)GlcNAc(b1-4)GlcNAc
# Procedure, shortened: as §1
# [38] = target: GlcNAc(b1-3)Gal(b1-4)GlcNAc(b1-3)Gal(b1-4)GlcNAc(b1-3)Gal(b1-4)GlcNAc(b1-3)Gal(b1-4)GlcNAc(b1-2)Man(a1-3)[GlcNAc(b1-3)Gal(b1-4)GlcNAc(b1-3)Gal(b1-4)GlcNAc(b1-3)Gal(b1-4)GlcNAc(b1-3)Gal(b1-4)GlcNAc(b1-2)Man(a1-6)]Man(b1-4)GlcNAc(b1-4)[Fuc(a1-6)]GlcNAc
# Procedure, shortened: as §1
binder,measurement,setting,value
"Gal 8 (Mus musculus), Q9JL15 (protein) MGGSHHHHHHGMASMLSLNNLQNIIYNPIIPYVGTITEQLKPGSLIVIRGHVPKDSERFQVDFQLGNSLKPRADVAFHFNPHFKRSSCIVCNTLTQEKWGWEEITYDMPFRKEKSFEIVFMVLKNKFQVAVNGRHVLLYAHRISPEQIDTVGIYGKVNIHSIGFRFSSASALPHTLGDLQSMETSALGLTQINRENIQKPGKLQLSLPFEARLNASMGPGRTVVIKGEVNTNARSFNVDLVAGKTRDIALHLNPHLNVKAFVRNSFLQDAWGEEERNITCFPFSSGMYFEMIIYCDVREFKVAINGVHSLEYKHRFKDLSSIDTLSVDGDIRLLDVRSW",glycan array binding signal (z-score),[1],-0.284
same,glycan array binding signal (z-score),[2],-0.292
same,glycan array binding signal (z-score),[3],-0.158
same,glycan array binding signal (z-score),[4],-0.279
same,glycan array binding signal (z-score),[5],-0.27
same,glycan array binding signal (z-score),[6],-0.253
same,glycan array binding signal (z-score),[7],-0.277
same,glycan array binding signal (z-score),[8],-0.097
same,glycan array binding signal (z-score),[9],-0.278
same,glycan array binding signal (z-score),[10],-0.221
same,glycan array binding signal (z-score),[11],-0.263
same,glycan array binding signal (z-score),[12],0.625
same,glycan array binding signal (z-score),[13],-0.262
same,glycan array binding signal (z-score),[14],-0.278
same,glycan array binding signal (z-score),[15],-0.285
same,glycan array binding signal (z-score),[16],-0.231
same,glycan array binding signal (z-score),[17],-0.279
same,glycan array binding signal (z-score),[18],-0.27
same,glycan array binding signal (z-score),[19],-0.275
same,glycan array binding signal (z-score),[20],-0.268
same,glycan array binding signal (z-score),[21],-0.274
same,glycan array binding signal (z-score),[22],-0.235
same,glycan array binding signal (z-score),[23],-0.198
same,glycan array binding signal (z-score),[24],-0.277
same,glycan array binding signal (z-score),[25],-0.272
same,glycan array binding signal (z-score),[26],-0.232
same,glycan array binding signal (z-score),[27],-0.275
same,glycan array binding signal (z-score),[28],-0.179
same,glycan array binding signal (z-score),[29],-0.057
same,glycan array binding signal (z-score),[30],-0.26
same,glycan array binding signal (z-score),[31],1.24
same,glycan array binding signal (z-score),[32],1.7
same,glycan array binding signal (z-score),[33],5.44
same,glycan array binding signal (z-score),[34],4.25
same,glycan array binding signal (z-score),[35],3.12
same,glycan array binding signal (z-score),[36],4.84
same,glycan array binding signal (z-score),[37],7.01
same,glycan array binding signal (z-score),[38],6.24
